PMC6919601, “Identification of Plasmodium dipeptidyl aminopeptidase allosteric inhibitors by high throughput screening” (PLoS ONE, 2019)
Out of some 110,000 compounds screened, about 230 (0.21%) showed an effect of 50% or more. The list shows a part of the results.

Molecular target: DPAP1 (Plasmodium falciparum, UniProt Q8IIJ9)
Assay: primary screen, percent inhibition; read by cleavage of a fluorogenic dipeptide substrate; higher = more effect of the substance
Design: species or system P. falciparum D10 trophozoite lysates; single well
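Further: 30 min substrate incubation versus DMSO and 10 µM JCP410 controls.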

Chain of DPAP1 (Q8IIJ9 whole entry, looked up): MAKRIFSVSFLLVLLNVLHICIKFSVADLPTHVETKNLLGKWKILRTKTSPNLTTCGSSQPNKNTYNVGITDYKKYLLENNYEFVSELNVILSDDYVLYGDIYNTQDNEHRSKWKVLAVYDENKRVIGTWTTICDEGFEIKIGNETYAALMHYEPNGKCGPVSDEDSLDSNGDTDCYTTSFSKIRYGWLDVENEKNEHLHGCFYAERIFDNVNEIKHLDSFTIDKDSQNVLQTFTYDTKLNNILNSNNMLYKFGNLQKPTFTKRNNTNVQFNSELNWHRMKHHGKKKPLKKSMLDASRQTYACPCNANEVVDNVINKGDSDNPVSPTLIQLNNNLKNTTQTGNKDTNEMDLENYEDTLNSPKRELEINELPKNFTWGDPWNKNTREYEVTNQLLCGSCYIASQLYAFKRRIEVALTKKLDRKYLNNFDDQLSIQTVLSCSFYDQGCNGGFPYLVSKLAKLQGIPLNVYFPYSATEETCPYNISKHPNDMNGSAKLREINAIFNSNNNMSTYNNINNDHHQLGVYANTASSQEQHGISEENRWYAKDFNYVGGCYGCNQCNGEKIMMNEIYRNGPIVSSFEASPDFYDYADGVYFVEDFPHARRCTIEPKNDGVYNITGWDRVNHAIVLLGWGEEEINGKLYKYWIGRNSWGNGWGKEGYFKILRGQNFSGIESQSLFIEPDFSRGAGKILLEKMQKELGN

Compound | % Inhibition @ 10 uM [%]
C[C@H](C[C@H](NC(=O)OCc1ccccc1)C(=O)NCC#N)c1c(F)cccc1F | -6.56
Cc1ccc(C2CC(=O)NC3=C2C(=O)CC(c2ccc(F)cc2)C3)cc1 (stereo not drawn) | 1.31
CCc1ccccc1NC(=O)c1ccccc1Br | -1.86
CCCC(=O)Nc1noc2ccccc12 | -4.64
CSc1c(CN2CCN(C)CC2)c2ccccc2n1C | 0.956
CC(C)(C)c1ccc(/C=c2\sc3nc(-c4cccnc4)nn3c2=O)cc1 | -3.33
CC(=O)c1cccc(NC(=O)/C(=C/c2cccc3ccccc23)NC(=O)c2ccccc2)c1 | 3.72
COc1ccc(CNC(=O)CN(c2cccc(C)c2)S(=O)(=O)c2ccccc2)cc1 | -6.02
COc1ccc(OC)c(CNC(=O)CCc2c(C)nc3c4cccnc4nn3c2C)c1 | -5.25
N#CCNC(=O)[C@H](NC(=O)OCc1ccccc1)C1CCCCC1 | 0.079
CCC(C)NC(=O)COc1ccc2c(c1)C(=O)CC(C)(C)O2 (stereo not drawn) | -4.07
COc1ccc(Cl)cc1NC(=O)c1ccccc1C | 0.526
CCCNC(=O)CN(Cc1ccc(C)cc1)S(=O)(=O)c1ccc(Br)cc1 | 4.39
Cc1cccc(Nc2nc(-c3ccccn3)cs2)c1 | 3.61
Cc1ccc(C)c(C(C)(C)CC(=O)O)c1 | 5.37
Cc1ccccc1CS(=O)(=O)Cc1ccc(C(=O)NCc2cccnc2)o1 | -0.0542
O=C(CSc1nnnn1-c1ccccc1)NCCOC12CC3CC(CC(C3)C1)C2 | -3.04
CCC(C)[C@H](NC(=O)c1ccncc1)C(=O)N[C@@H](CCc1ccccc1)C(=O)CO (stereo partly drawn) | 0.744
COc1ccc(OC)c(C2C(C#N)=C(N)Oc3[nH]nc(-c4ccc(F)cc4)c32)c1 (stereo not drawn) | 0.343
Cc1nc2nc(C3CCN(C(=O)OC(C)(C)C)CC3)nn2c(C)c1CCC(=O)O | -2.17
CCC(CC)c1nn2cc(-c3ccc(C)c(C)c3)nc2s1 | 9.89
CCN(Cc1ccccc1)C(=O)c1ccccc1Cl | 2.22
CC(=O)Nc1ccc(NS(=O)(=O)c2ccccc2C)cc1 | 3.48
O=C(CN1C(=O)c2ccccc2C1=O)NCCc1ccccc1F | -3.21
O=C(O)CSc1nnc2n(-c3ccccc3)c3ccccc3n12 | -2.21

Compound | % Inhibition @ 10 uM [%]
COc1cccc(CN2CCN(c3ccc(C(C)=O)cc3)CC2)c1 | -2.02
Cc1ccc2onc(CNC(=O)NCCc3c[nH]c4ccccc34)c2c1 | -4.02
CN(Cc1ccccc1)CC(O)c1ccccc1 (stereo not drawn) | -3.5
O=[N+]([O-])c1ccc(S(=O)(=O)Nc2nccs2)cc1 | -0.687
CCCS(=O)(=O)n1nc(-c2ccc(OCC)cc2)cc1N | 12.6
O=C1CC(N2CCN(C/C=C/c3ccccc3)CC2)C(=O)N1c1cccc(Br)c1 (stereo not drawn) | 3.53
Cc1cc(C)cc(OCc2cc(=O)n3oc(C)cc3n2)c1 | -7.65
O=C1CCCN1CCCNc1ncnc2c1c(-c1ccccc1)cn2-c1ccc(Cl)cc1 | 3.36
O=C(NCCCc1ccccc1)C(=O)NCC(c1cccnc1)N1CCOCC1 (stereo not drawn) | -3.74
O=C(CN1CCCN(Cc2ccc(F)cc2Cl)C1=O)NCc1ccc(Cl)cc1 | 3.93
CCc1ccc(CN2CCc3c([nH]c4ccccc34)C2)cc1 | 3.1
O=C(CC(Nc1ccc(Br)cc1)c1ccccc1)c1ccccc1 (stereo not drawn) | 4.33
CCCCNc1nc2c(c(=O)n(C)c(=O)n2C)n1CC(O)COc1ccccc1 (stereo not drawn) | 2.31
OCCN1CCN(Cc2ccc(Cl)c(Cl)c2)CC1 | 0.247
O=C(O)c1ccccc1-c1ccc(C(F)(F)F)cc1 | 0.219
CCOc1cc(C(=O)Nc2nn3c(-c4ccc(C)cc4)nnc3s2)cc(OCC)c1OCC | -1.26
CCOC(=O)c1cc(C)n(CC2CCC(C(=O)N(C)C3CCCCC3)CC2)c1C (stereo not drawn) | 0.453
N#CCNC(=O)c1nn2c(C(F)(F)F)cc(-c3ccccc3)nc2c1Br | -9.15
COC(=O)c1ccc(Cl)c(-c2ccc(C(=O)N[C@@H](C[C@H](C)c3ccccc3)C(=O)NC3(C#N)CCN(CC(F)(F)F)CC3)cc2)c1 | -1.5
COC(=O)C1=CN(CCc2ccc(OC)cc2)C=C(C(=O)OC)C1c1ccccc1C(F)(F)F | 5.17
Fc1ccc2c(c1)[C@H]1OCC[C@H]1[C@@H](c1ccco1)N2 | -0.872
COc1ccc(N(CC(N)=O)S(=O)(=O)c2ccc(C)cc2)cc1Cl | -1.95
CCOCCCNC(=O)c1ccc2c(c1)ncn2-c1cccc(F)c1 | 2.8
CC(C)(C)c1ccc(S(=O)(=O)Nc2noc3ccccc23)cc1 | -1.11
COc1cc(OC)nc(-n2[nH]c(=O)c3ccccc3c2=O)n1 | 0.343

Compound | % Inhibition @ 10 uM [%]
O=C(COc1ccc(S(=O)(=O)N2CCCC2)cc1)N1CCCCC1 | -8.59
CCOc1cc(C2CC(=O)NC3=C2C(=O)CC(c2ccc(OC)c(OC)c2)C3)cc(Cl)c1O (stereo not drawn) | -3.51
C#CCOC(=O)c1ccc(S(=O)(=O)N2CCCCC2)cc1 | 3.15
COc1ccccc1C(=O)Nc1sc(-c2ccccc2)cc1C(=O)O | 6.34
O=C(NCCC1=CCCCC1)c1ccc(Br)o1 | -1.73
COc1ccc2c(c1)CCc1c(C(=O)Nc3c(C)nn(Cc4ccc(F)cc4)c3C)noc1-2 | 0.0221
c1ccc(CCN2CCN(c3ccccc3)CC2)cc1 | -0.603
CCOC(=O)c1[nH]c(C)c(C(=O)NC(C)c2ccccc2)c1C (stereo not drawn) | -3.44
O=C(CCCn1c(=O)c2cccn2c2cccnc21)NCCCN1CCc2ccccc2C1 | 0.677
O=S(=O)(c1ccc(-c2cc(C(F)(F)F)no2)s1)N(CCN1CCOCC1)Cc1ccco1 | -5.12
O=C1CCCC2=C1C(c1cccc(Br)c1)C1=C(CCCC1=O)O2 | 16
CCN(CC)CCNc1ccc2nnc(CCNC(=O)c3ccc(C)cc3)n2n1 | -5.88
Cc1ccc(Cn2nc(C)c(NC(=O)COCc3cc(-c4cccs4)on3)c2C)cc1 | -7.94
CCN(CC)c1nc(Cl)nc(N(C)C#N)n1 | -2.15
Cc1ccc(C2C(C(=O)c3ccc(F)cc3)=C(O)C(=O)N2CCCN(C)C)cc1 (stereo not drawn) | 2.27
COc1ccc(C2CC(c3ccccc3C)n3nnnc3N2)cc1 (stereo not drawn) | -1.62
COc1cc(C2C(C#N)=C3N=C(N)c4c(sc5c4C4CCN5CC4)N3C3=C2C(=O)CCC3)ccc1O (stereo not drawn) | 5.13
COc1ccc(CCNC(=O)c2cnn3ccccc23)c(OC)c1OC | -6.52
CCOc1ccc(NC(=O)c2c(Cl)c(C)nn2C)cc1 | 0.121
COc1ccccc1C1C(C#N)=C(N)Oc2c1sc1ccccc21 (stereo not drawn) | -3.9
COC(=O)c1sc2nc3n(c(=O)c2c1C)N=C(c1ccc(Br)cc1)CS3 | 4.46
CC(C)C(=O)Nc1ccc(NC(=O)Cc2ccc(Cl)cc2)cc1 | -0.231
Cc1nnc(N2CCC(C(=O)NC(C)CCc3ccccc3)CC2)c2nn(-c3ccccc3)c(C)c12 (stereo not drawn) | 0.0274
Fc1ccc(-c2nnc(-c3ccc4c(c3)OCO4)o2)cc1 | 2.41
c1nc(NCCCN2CCOCC2)c2c3c(sc2n1)CCCC3 | 4.89

Compound | % Inhibition @ 10 uM [%]
COc1ccc(CCNC(=O)CN2CC(c3ccccc3)CC2=O)cc1OC (stereo not drawn) | 0.738
COCCNC(=O)O[C@@H](CS(=O)(=O)Cc1ccccc1)C(=O)NCC#N | -5.42
CC(C)NC(=O)C(=O)NCc1ccccc1Cl | 1.13
Cc1cccc(OCC(=O)NC2CCCCCC2)c1 | 2
CC1=NN(C(=O)c2ccc(COc3ccccc3Br)o2)C(O)(C(F)(F)F)C1 (stereo not drawn) | -3.71
O=C(NC1CCCCCCC1)c1ccc2c(c1)ncn2C1CCCC1 | 6.74
COc1ccc(CC2=C(O)C(=O)c3ccccc3C2=O)cc1 | -1.25
Cc1oc(-c2cccc(Br)c2)nc1CN1CCC(C(=O)NC2CCCCC2C)CC1 (stereo not drawn) | 0.689
O=C(O)CSc1nc2c(Br)c(N3CCOCC3)c(F)cc2[nH]1 | -2.18
COc1ccc(Cc2c(Cl)nc(SC)nc2Cl)cc1 | 5.3
C=CCc1cccc2cc(C(=O)Nc3ccc(OC)cc3)c(=O)oc12 | -0.771
CC(NC(=O)CCN1C(=O)c2ccccc2Sc2ncccc21)c1ccccc1 (stereo not drawn) | 0.436
COC(=O)c1cc(S(=O)(=O)NCc2ccc(C)cc2)c[nH]1 | -11.9
Cc1cc(OCC(=O)NCC2CCCO2)ccc1Cl (stereo not drawn) | -1.98
CC1Nc2nc(N)nc(O)c2N(C(=O)c2cccnc2)C1C (stereo not drawn) | 4.03
OCC/N=C/c1c(O)n(-c2c(Cl)cccc2Cl)c2ccccc12 | 0.484
CC(C)CCn1cnc2c1c(=O)n(C)c(=O)n2C | -3.13
COc1cc(C2C(C(=O)c3ccc4c(c3)OCCO4)=C(O)C(=O)N2Cc2ccco2)ccc1O (stereo not drawn) | -10.7
Cc1ccc(S(=O)(=O)N2CCC(CN3C(=O)c4cccc5cccc(c45)C3=O)CC2)cc1 | -3.37
CCOC(=O)c1c(C)oc2nc(C)nc(N3CCN(C(=O)OCC)CC3)c12 | -5.57
Cn1c(-c2ccc(Cl)cc2)cnc1NCc1ccc(C(F)(F)F)cc1 | -1.11
COc1cccc(S(=O)(=O)Nc2ccc(C(=O)NCCc3ccccc3)cc2)c1 | -4.72
Cn1c(=O)c2ncn(CC(=O)Nc3cccc(-c4nc5ccccc5s4)c3)c2n(C)c1=O | 9.11
C=CCc1ccccc1OCC(O)Cn1cnc2ccccc21 (stereo not drawn) | -3.39
